Some of the results follow.

In this experiment the target is T1, OsWOX13 (Oryza sativa, UniProt Q5QMM3 1-267).
T1 sequence: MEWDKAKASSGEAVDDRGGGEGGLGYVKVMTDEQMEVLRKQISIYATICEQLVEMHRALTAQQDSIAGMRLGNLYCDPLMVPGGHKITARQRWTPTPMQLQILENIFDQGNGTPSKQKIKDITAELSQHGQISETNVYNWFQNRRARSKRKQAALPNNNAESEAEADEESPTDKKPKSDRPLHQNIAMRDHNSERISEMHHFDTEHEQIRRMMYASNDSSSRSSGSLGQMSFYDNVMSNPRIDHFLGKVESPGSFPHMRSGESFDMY
The experiment is described as follows: protein-binding microarray (RPBM); PBS, 2% BSA, 51.3 ng/ul salmon testes DNA, 50 uM zinc acetate, 200 nM TF, 25 C, 1 h; high values mean tight binding. To be noted: protein: recombinant; tags: N-terminal polyhistidine and DsRed monomer fusion (pET32a); label: CyDye5-dUTP incorporated in the synthesized complementary strand; 3' TTTTT single-stranded linker to array surface; dsDNA, one strand shown. The procedure, abridged:
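A custom Agilent array was converted to double-stranded form by primer extension with Cy5-dUTP and blocked with 2% BSA. Protein at 200 nM in PBS with 2% BSA, salmon testes DNA and 50 µM zinc acetate was applied for 1 h at 25 °C, followed by washing. The proteins were polyhistidine–DsRed N-terminal fusions of transcription factors, expressed in E. coli BL21-CodonPlus and Ni–NTA-purified. The binding signal is per-feature fluorescence intensity (arbitrary units) from an Axon 4000B scanner.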
“TTTTAACCGAGGCAAATTTTAAATTATGAGCTAAATAATGCGGAGTCACCTAGTGCAG”: the binding signal is 6070 fluorescence intensity (a.u.). With “AGATCAACTGATTGCATTGACCCTCCAGTGGACTGGAAGTCGGAGTCACCTAGTGCAG”, the binding signal is 9680 fluorescence intensity (a.u.). The result for “TGGAGTGGAATTGGGATTGAGAAATGAATGAAGGGTTAGACGGAGTCACCTAGTGCAG” reads 3380 fluorescence intensity (a.u.). The result for “TTAATCAATGATTTCTTATATAGAGAGAACGGCCCTCACACGGAGTCACCTAGTGCAG” reads 9740 fluorescence intensity (a.u.). Under “ATCGAATTGAGGGAGATAAATTGATCTTGTTTTAATAATTCGGAGTCACCTAGTGCAG” stands 3450 fluorescence intensity (a.u.).

Turning to “TGCTGATGACGAAATTAACGAGACTAACCGATCCATCAAGCGGAGTCACCTAGTGCAG”, the binding signal is 29200 fluorescence intensity (a.u.). As for “ATTGAATGAGATAAATGATATAACGTATGTCTAAAAGATACGGAGTCACCTAGTGCAG”, the binding signal is 6040 fluorescence intensity (a.u.).

As to “TCTTAATGATTGTACCTCTAGTTTTGTTTTCTCTCTTGAACGGAGTCACCTAGTGCAG”, the binding signal was 24600 fluorescence intensity (a.u.).

In the case of “CTAAAAGTAATTTAGACATATCATAAAAGTAATTTGTGATCGGAGTCACCTAGTGCAG”, the binding signal is 16000 fluorescence intensity (a.u.). As for “TAAGGTTGAAAATTTAAATTTTGGTTTATAAACATAAGCACGGAGTCACCTAGTGCAG”, the binding signal is 3760 fluorescence intensity (a.u.). Consider “GCTCGTGATTTTCTGCTTGCCCGATTGGGCCTGCGATGTCCGGAGTCACCTAGTGCAG”, for which the binding signal is 5460 fluorescence intensity (a.u.). Regarding “AACCAAGTAAAATTATTTATTAATTTTGATAGTTAGTTACCGGAGTCACCTAGTGCAG”, the binding signal was 5660 fluorescence intensity (a.u.). For the sequence “TTCATCTGATTTGCCCTACCTTTGCGCTCCGGCTTGCTCTCGGAGTCACCTAGTGCAG”, the binding signal was 7820 fluorescence intensity (a.u.).

As for “TGTTATATTGCTATGATTGTTGAACACCTTCATTCTTGAACGGAGTCACCTAGTGCAG”, the binding signal was 11200 fluorescence intensity (a.u.). For “AATATATGATTGATTTGTTACAACGAAATATATGGTGGGGCGGAGTCACCTAGTGCAG”, the binding signal was 49600 fluorescence intensity (a.u.). The result for “ACAAACCCTCCCGTTGTTTCAATCAACGTTCATTTCGAACCGGAGTCACCTAGTGCAG” reads 5240 fluorescence intensity (a.u.); that for “ACTAATAGAGGTGGCATCAATCAAATTTGCTCTTTCTTGTCGGAGTCACCTAGTGCAG”, 20900 fluorescence intensity (a.u.). Under “GATGAAATTATGTTGGATGATAATTTAACATGTTTGTATTCGGAGTCACCTAGTGCAG” stands 11000 fluorescence intensity (a.u.). Under “ATAGTAAATATTTAATTGATCAAGCGCTAATCGCTGCTCCCGGAGTCACCTAGTGCAG” stands 34500 fluorescence intensity (a.u.); under “CACATGTAACATTAATTTCTTGCTACTTTAGCAACTACCCCGGAGTCACCTAGTGCAG”, 3550 fluorescence intensity (a.u.). Take “ACCTTGTAGATGTTTGGATTGATGCCAAAATTTACCAAAGCGGAGTCACCTAGTGCAG”: the binding signal is 3170 fluorescence intensity (a.u.). Under “GAGCTGATAATTAACTTGCGGAACGCAAGGGACGACACGACGGAGTCACCTAGTGCAG” stands 5450 fluorescence intensity (a.u.). Under “GGGGAGTAATTGCTAATGGGTGATGATGTGACACATTTGTCGGAGTCACCTAGTGCAG” stands 24800 fluorescence intensity (a.u.); under “TAATAAATTAAAATTTTGTTAAATTTGTTAGACAAACTCCCGGAGTCACCTAGTGCAG”, 41300 fluorescence intensity (a.u.); under “TTAATTTGATGAAACTAATTTAGTATTATAAATATTACTACGGAGTCACCTAGTGCAG”, 19400 fluorescence intensity (a.u.). On to “GACCAAACCTCCAATTAACAAGGTAGTTTAACACACATCACGGAGTCACCTAGTGCAG”, for which the binding signal was 6600 fluorescence intensity (a.u.). Under “CATGATTGCACCCTCAAGCAAAGTCCGAATTGATCACCTTCGGAGTCACCTAGTGCAG” stands 25200 fluorescence intensity (a.u.). Turning to “GGACCCTAATTACCCATGTTTAGGTGTGTCGCCAGTATCGCGGAGTCACCTAGTGCAG”, the binding signal is 9100 fluorescence intensity (a.u.). In the case of “GAAATCTAATTTTATCCACGAGACTATAGTGAGCCTACTCCGGAGTCACCTAGTGCAG”, the binding signal was 4290 fluorescence intensity (a.u.).

Take “AGTTGACGAGACGGACACACAGAGGAAGACAGATTAGTCACGGAGTCACCTAGTGCAG”: the binding signal was 3980 fluorescence intensity (a.u.). For the sequence “TATATAGATTGGGAATTTGGGATTTGATACAAAGTACTAACGGAGTCACCTAGTGCAG”, the binding signal was 9520 fluorescence intensity (a.u.).

For the sequence “GGTAGCTAATTAGCACATATTTAATTAAGAATAGTTACGACGGAGTCACCTAGTGCAG”, the binding signal was 33100 fluorescence intensity (a.u.). Consider “ATGGACAGATTGAAACATTAAGAACTAAACTGATCATTGTCGGAGTCACCTAGTGCAG”, for which the binding signal is 21500 fluorescence intensity (a.u.).

“ACACTAATCACTACTTGCCACATGCAGTAACACTCGCCTACGGAGTCACCTAGTGCAG”: the binding signal was 6540 fluorescence intensity (a.u.). The result for “TGGTGATAATGTCATTCTGTTATTACAGAGGTCAACGTGTCGGAGTCACCTAGTGCAG” reads 3410 fluorescence intensity (a.u.); that for “CATTCTAGTGATTATTGCGACCGTTACTGGCTCTTTCATTCGGAGTCACCTAGTGCAG”, 4350 fluorescence intensity (a.u.).

“AAATTAATTAATACTATCCGCCACCTTCTCTCAACTCTGACGGAGTCACCTAGTGCAG”: the binding signal was 27600 fluorescence intensity (a.u.). For the sequence “TGAACCATAATTTCACTGTCTATACATGTAACATTATCTTCGGAGTCACCTAGTGCAG”, the binding signal is 3650 fluorescence intensity (a.u.). For “GAAGGGATTGACGAAAATAGGTGTGAAAGCCATATGCATTCGGAGTCACCTAGTGCAG”, the binding signal was 13900 fluorescence intensity (a.u.). The result for “CTTAATGAAATTGAAAATTTTAACTAAAGGGCAAATACAACGGAGTCACCTAGTGCAG” reads 20000 fluorescence intensity (a.u.); that for “CTCGTTGGCTAGAGCGCGAGAGCCAGTAGCCGCAGCTGCACGGAGTCACCTAGTGCAG”, 19500 fluorescence intensity (a.u.); that for “CGAATGAATTGATACAGTACATTTCAGGGATTTCATTAGTCGGAGTCACCTAGTGCAG”, 4750 fluorescence intensity (a.u.).

The record behind these values is article PMC7819943, “Rice protein-binding microarrays: a tool to detect cis-acting elements near promoter regions in rice”.
